# Measurements taken from paper PMC6919601, “Identification of Plasmodium dipeptidyl aminopeptidase allosteric inhibitors by high throughput screening” (PLoS ONE, 2019).
# Where “and” joins values, the source holds several entries; their conditions need not be identical. Equal entries are not always repeated. Hit rate of the full screen: of about 110,000 compounds, about 230 (0.21%) showed an effect of 50% or more. This is one part of the list.
# Molecular target: DPAP1 (Plasmodium falciparum, UniProt Q8IIJ9)
# Assay: primary screen, percent inhibition; read by cleavage of a fluorogenic dipeptide substrate; higher = more effect of the substance
# Set-up: species or system P. falciparum D10 trophozoite lysates; single well
# 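Further: 30 min substrate incubation versus DMSO and 10 µM JCP410 controls.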
# Chain of DPAP1 (Q8IIJ9 whole entry, looked up): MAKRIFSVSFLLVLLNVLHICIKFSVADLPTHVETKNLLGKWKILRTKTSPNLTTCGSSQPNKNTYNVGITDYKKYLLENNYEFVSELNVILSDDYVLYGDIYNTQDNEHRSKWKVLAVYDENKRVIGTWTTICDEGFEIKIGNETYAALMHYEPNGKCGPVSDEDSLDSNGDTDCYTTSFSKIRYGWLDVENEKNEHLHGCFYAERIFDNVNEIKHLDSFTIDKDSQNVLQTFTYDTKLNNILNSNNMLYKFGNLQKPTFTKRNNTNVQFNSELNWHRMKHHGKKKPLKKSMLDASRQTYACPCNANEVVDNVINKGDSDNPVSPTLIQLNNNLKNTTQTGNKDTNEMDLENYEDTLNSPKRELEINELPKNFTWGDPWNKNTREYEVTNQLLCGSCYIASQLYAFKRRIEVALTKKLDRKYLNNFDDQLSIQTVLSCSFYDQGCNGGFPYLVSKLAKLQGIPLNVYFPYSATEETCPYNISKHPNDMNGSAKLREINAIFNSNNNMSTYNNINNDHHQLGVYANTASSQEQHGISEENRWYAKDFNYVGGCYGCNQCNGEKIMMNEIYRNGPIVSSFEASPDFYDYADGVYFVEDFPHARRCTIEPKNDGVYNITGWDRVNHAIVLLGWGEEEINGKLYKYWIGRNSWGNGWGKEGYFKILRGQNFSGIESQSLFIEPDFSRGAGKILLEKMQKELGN
row,SMILES,% Inhibition @ 10 uM
1,CCCNC(=O)Cn1ncc2c3ccccc3n(Cc3cccc(Cl)c3)c2c1=O,-3.35%
2,CC1CCCCC1NC(=O)Cn1ncc2c3ccccc3n(Cc3ccc(F)cc3)c2c1=O (centres unmarked),-1.58%
3,C=CCC1(C#N)C(S)=NC2=C(C(=O)CC(C)(C)C2)C1C (centres unmarked),2.7%
4,O=C(CCCOc1ccc(Cl)cc1Cl)N1CCCCC1,-1.92%
5,Cc1ccc2nsnc2c1NC(=O)c1cccc(Cl)c1,3.1%
6,COc1ccc(OC)c(CCNC(=O)C2CCCN(c3nc4c(C)cc(C)cc4s3)C2)c1 (centres unmarked),6.46%
7,CCCC(=O)NCc1nc2ccccc2n1C(C)c1ccccc1 (centres unmarked),-2.28%
8,CCOC(=O)c1c(C(=O)OCC)c(C)n(CCc2ccc(OC)c(OC)c2)c1C,1.68%
9,Cc1cccc(NC(=O)c2ccc(COc3ccc(Cl)cc3Cl)o2)n1,0.413%
10,COCCN1C(=O)c2[nH]nc(-c3ccccc3O)c2C1c1ccc(C(C)(C)C)cc1 (centres unmarked),0.366%
11,Clc1cc(Cl)c2c(-c3ccccc3)[nH]nc(-c3ccccc3)c1-2,-2.51%
12,Cc1c(C(=O)NCc2ccccn2)sc2nc(-c3ccccc3)cn12,-0.138%
13,COc1ccc(NC(=O)Cc2coc3ccc4ccccc4c23)cc1,-1.38%
14,COC(=O)c1ccc(/C=c2\sc3nc(-c4ccc(OC)c(OC)c4)nn3c2=O)cc1,0.561%
15,COc1cc(NC(=O)c2sc3nc4c(cc3c2N)CCCCC4)cc(OC)c1,4.83%
16,Cc1ccc2nc3c(O)n(CCCN4CCN(C)CC4)cnc-3c2c1,-3.52%
17,CCOC(=O)c1cc2c(=O)n3ccccc3nc2n(CC(C)C)/c1=N/C(=O)CCc1ccccc1,-1.2%
18,O=C(c1ccccc1)c1ccc2nc(NCCO)c3nncn3c2c1,-2.14%
19,CC12CC3CC(C)(C1)CC(C(=O)CCC(=O)O)(C3)C2,-0.833%
20,COc1cc(OC)cc(C(=O)N2CCN(Cc3cc(OC)c(O)c(OC)c3)CC2)c1,-3.41%
21,COc1ccc(CCNC(=O)c2ccc(C3SCC(=O)N3Cc3ccccc3)cc2)cc1 (centres unmarked),0.193%
22,Cn1c(=O)c2c(nc(NCc3ccccc3)n2CCC#N)n(C)c1=O,-9.24%
23,C1=C(c2ccccc2)Nc2nnnn2C1c1ccccc1 (centres unmarked),-3.93%
24,CCOc1ccc(N2CC(C(=O)NCCc3ccccc3)CC2=O)cc1 (centres unmarked),1.4%
25,COc1ccc(-c2cc(C)no2)cc1S(=O)(=O)N(C)Cc1ccccc1,-1.54%
26,O=C(Nc1ccc2nccnc2c1)N1CCCCCC1,-1.32%

row,SMILES,% Inhibition @ 10 uM
1,Cc1oc(-c2ccc(Cl)cc2)nc1CN1CCC(C(=O)N2CCN(c3ccccn3)CC2)CC1,0.689%
2,Cn1cc(Br)c(C(=O)NCc2cc3cc(Cl)ccc3[nH]2)n1,0.408% and -2.07%
3,Cc1cccc(CSc2nc(O)c3c(C)cc(C)nc3n2)c1,2.02%
4,CC1(C)C(C=C(Cl)Cl)C1C(=O)Nc1sc2c(c1C#N)CCCC2 (centres unmarked),1.25%
5,Cc1cc(C)c2nc(-c3ccco3)cc(C(=O)O)c2c1,5.24%
6,Cc1ccc(C2=NN(S(=O)(=O)c3ccccc3)C(c3ccco3)C2)cc1 (centres unmarked),-8.2%
7,CCCN1CCC(N2CCCC(CO)C2)CC1 (centres unmarked),0.472%
8,O=C(CCN1CCN(CCO)CC1)Nc1ccc(C2CCCC2)cc1,-6.02%
9,O=C(CNS(=O)(=O)c1ccc(Br)s1)NC1CCCc2ccccc21 (centres unmarked),-4.07%
10,COc1ccc(OC)c(N(CC(=O)NC2CC3CCC2C3)S(=O)(=O)c2ccc(C)cc2)c1 (centres unmarked),-6.24%
11,O=C1CCCC2=C1C(c1ccc(F)cc1)Nc1ccc3ncccc3c12 (centres unmarked),13.8%
12,COc1ccccc1NC(=O)NC(N)=O,-0.807%
13,CCN(CC)C(=O)c1cc(-c2ccc(Cl)c(Cl)c2)on1,-5.77%
14,CCN(C(=O)Cc1ccccc1)C1CCCCC1,-3.42%
15,O=C(NC12CC3CC(CC(C3)C1)C2)c1cnn2c(C(F)(F)F)cc(-c3ccccc3)nc12,-0.441%
16,CC1(C)CC2=Nc3ccccc3NC(c3ccccc3)C2=C(O)C1 (centres unmarked),2.13%
17,CC(=O)NCC1Cc2ccccc2Sc2ccccc21 (centres unmarked),-4.69%
18,CC1=NC2=C(C(=O)CC(C)(C)C2)C(c2cccc(F)c2)/C1=C(\O)OC(C)C (centres unmarked),-0.807%
19,CC1=C(C(=O)Nc2ccccc2C)C(c2ccccc2F)C2=C(O)CCCC2=N1 (centres unmarked),5.66%
20,Cc1c(-c2ccccc2)oc(-c2ccccc2)c(C)c1=O,-2.02%
21,C=CCNC(=O)c1cc(-c2ccc(C)c(C)c2)nc2ccccc12,1.16%
22,CN1C(=O)c2ccccc2C(C(=O)NCc2cccc(Cl)c2)C1c1cccs1 (centres unmarked),2.19%
23,CCCCCCNC(=O)c1cnc2ccc(S(=O)(=O)N3CCCCC3c3cccnc3)cc2c1O (centres unmarked),3.47%
24,N#Cc1ccc(N2C(=O)C3C4C=CC(C4)C3C2=O)c(Cl)c1 (centres unmarked),-3.45%
25,COc1ccccc1N1CCN(C(=O)CN(C2CCCCC2)S(=O)(=O)c2ccc(C)cc2)CC1,-5.19%
26,CCn1cc(/C=C(\NC(=O)c2ccccc2Cl)C(=O)NCCO)c2ccccc21,-3.52%

row,SMILES,% Inhibition @ 10 uM
1,CN(C)CCCNC(=O)c1cc(Sc2ccc(F)cc2)nc2ccccc12,2.7%
2,CCOc1ccccc1C1NC(=O)NC(C)=C1C(=O)OC1CCCC(C)C1 (centres unmarked),16.9%
3,COc1cc(-c2nnc3sc(COc4ccc(Cl)cc4)nn23)cc(OC)c1OC,6.01%
4,CCc1nc(SC)ncc1C(=O)NC(C)CCc1ccccc1 (centres unmarked),6.16%
5,C=CCSC1=C(C#N)C(c2ccc(Cl)cc2Cl)CC(=O)N1 (centres unmarked),2%
6,O=C(c1cc2nc(-c3ccco3)cc(C(F)(F)F)n2n1)N1CCN(c2ccccc2)CC1,-5.62%
7,CCOCCCNC(C)Cc1ccccc1F (centres unmarked),-3.5%
8,COc1ccccc1NC(=O)/C(=C\c1ccc(Cl)cc1)NC(=O)c1ccccc1,2.45%
9,O=C(Cc1coc2ccc3ccccc3c12)N1CCCC1,2.01%
10,CCN1CCN(c2c(S(=O)(=O)c3ccccc3)cnc3ccc(OC)cc23)CC1,-6.24%
11,O=C(NC12CC3CC(CC(C3)C1)C2)N1CCN(C(=O)C2CCCO2)CC1 (centres unmarked),1.64%
12,COc1ccc(NC2=NC(=O)/C(=C/c3ccc(N4CCCCC4)o3)S2)cc1,-16.1%
13,COc1ccc(-c2[nH]c(-c3ccc(C(=O)O)cc3)nc2-c2ccccc2)cc1OC,-1.6%
14,NC(=O)c1cc(-c2ccc(Cl)cc2)no1,9.47%
15,COC(=O)c1ccc(CN2CCCC2)cc1,-5.31%
16,CN(C(=O)c1ccccc1Br)c1ccccc1,1.83%
17,CCS(=O)(=O)N1CCC2(CC1)OC(=O)C(C)=C2C(=O)NC1CCN(Cc2ccccc2)CC1,0.00978%
18,CSc1ccc(CN2CCN(c3cccc(Cl)c3)CC2)cc1,0.847%
19,CC1CC(C)CN(Cc2nc3c(c(=O)n(C)c(=O)n3C)n2CC(N)=O)C1 (centres unmarked),-3.23%
20,O=C(Nc1ccc(F)c(F)c1)c1cccc(OC(F)F)c1,-4.15%
21,CC(=O)c1ccc(C(=O)N(CCCN(C)C)c2nc3c(F)cccc3s2)cc1,-2.95%
22,Cc1nn(CC(=O)Nc2sc3c(c2C(N)=O)CCCC3)c(C)c1Cl,4.31%
23,CCSC1=NSC2=NC(=O)/C(=C\c3cc(OC)c(O)c(OC)c3)C(=N)N12,1.07%
24,O=C1CCC(N2Cc3ccccc3C2=O)C(=O)N1 (centres unmarked),-24.6%
25,CCN(CC)C(=O)C1CCCN(Cc2ccc(Br)o2)C1 (centres unmarked),-0.828%
26,O=C(NCc1ccc2c(c1)OCO2)c1ccc2snnc2c1,-9.25%

row,SMILES,% Inhibition @ 10 uM
1,CCCOc1cccc(C(=O)Nc2ccc(NC(=O)c3cccs3)cc2)c1,-2.31%
2,Cc1cc2[nH]c3cc(C)c(C)cc3c2cn1,-7.4%
3,COc1ccc(-c2nc(C#N)c(NCCN(C)C)o2)cc1,-3.23%
4,CCCCN(C)Cn1[nH]c(=O)ccc1=O,3.24%
5,C=CCN1C(=O)CC(C(=O)OCC)=C1C,1.72%
6,COc1ccc(-c2nnc(SCC(N)=O)n2-c2cccc(C(F)(F)F)c2)cc1OC,-4.97%
7,Cc1ccc(-n2c(C)cc(C=C3C(=O)c4ccccc4C3=O)c2C)nc1,2.16%
8,Clc1ccc(-c2nnc(NCCN3CCCC3)c3ccccc23)cc1,-5.47%
9,CCOc1ccc(-c2[nH]nc3c2C2(C(=O)Nc4ccccc42)C(C#N)=C(N)O3)cc1OC (centres unmarked),-1.98%
10,Cc1cc(O)c(C(=O)/C=C/c2ccc(O)cc2)c(=O)o1,-0.415%
11,CCN(CC)Cc1c(C=O)sc2c1CCCC2,-4.21%
12,O=C(CSc1ccc(-c2cccs2)nn1)N1CCCC1,-5.26%
13,CC(C)(C)c1ccc(Oc2coc3cc(O)ccc3c2=O)cc1,-8.33%
14,c1ccc(Oc2ccc(-n3nnc(-c4ccccc4)n3)cc2)cc1,0.00706%
15,c1ccc(-c2cn3c4c(sc3n2)CCCC4)cc1,-3.09%
16,COCc1cc(O)n2nc(SC)nc2n1,2.31%
17,CC1=C(C)CC(C(=O)Nc2cccc(Cl)c2)C(C(=O)O)C1 (centres unmarked),0.924%
18,CC1CCC2C(=O)N(Cc3ccccc3)C(=O)C2C1 (centres unmarked),-6.25%
19,O=S(=O)(NCCCCCc1nc2ccccc2[nH]1)c1ccc(Cl)c(Cl)c1,5.3%
20,Cc1nnc(NC(=O)CC(CN(C)S(=O)(=O)c2ccccc2)c2ccccc2)s1 (centres unmarked),-2.63%
21,Cc1nc2sc3c(S)ncnc3c2c2c1CCCC2,6.1%
22,CCC(Cc1ccccc1)NC(=O)C1CCC(C/N=c2/c(N3CCCC3)c(O)c2=O)CC1 (centres unmarked),-0.447%
23,O=c1c2ccccc2nc(/C=C/c2ccc(Br)cc2)n1CCO,-1.65%
